# Out of some 360,000 compounds screened, about 16,000 (4.4%) were called active. This list was built around the results that the source calls inconclusive (neither active nor inactive); the mix of calls is not that of the screen. The call rests on the fitted dose curve; in most records, active means well fitted inhibition curve with a large enough effect; inconclusive means small, poorly fitted or top-dose-only effect; inactive means no such curve, though single readings can be large or run the other way. Potencies of inconclusive entries are doubtful fits and often do not repeat.
# Target: Bromodomain adjacent to zinc finger domain protein 2B (Homo sapiens) (UniProt Q9UIF8)
# UniProt Q9UIF8, sequence (Q9UIF8 whole entry, looked up, the tested form may be a part): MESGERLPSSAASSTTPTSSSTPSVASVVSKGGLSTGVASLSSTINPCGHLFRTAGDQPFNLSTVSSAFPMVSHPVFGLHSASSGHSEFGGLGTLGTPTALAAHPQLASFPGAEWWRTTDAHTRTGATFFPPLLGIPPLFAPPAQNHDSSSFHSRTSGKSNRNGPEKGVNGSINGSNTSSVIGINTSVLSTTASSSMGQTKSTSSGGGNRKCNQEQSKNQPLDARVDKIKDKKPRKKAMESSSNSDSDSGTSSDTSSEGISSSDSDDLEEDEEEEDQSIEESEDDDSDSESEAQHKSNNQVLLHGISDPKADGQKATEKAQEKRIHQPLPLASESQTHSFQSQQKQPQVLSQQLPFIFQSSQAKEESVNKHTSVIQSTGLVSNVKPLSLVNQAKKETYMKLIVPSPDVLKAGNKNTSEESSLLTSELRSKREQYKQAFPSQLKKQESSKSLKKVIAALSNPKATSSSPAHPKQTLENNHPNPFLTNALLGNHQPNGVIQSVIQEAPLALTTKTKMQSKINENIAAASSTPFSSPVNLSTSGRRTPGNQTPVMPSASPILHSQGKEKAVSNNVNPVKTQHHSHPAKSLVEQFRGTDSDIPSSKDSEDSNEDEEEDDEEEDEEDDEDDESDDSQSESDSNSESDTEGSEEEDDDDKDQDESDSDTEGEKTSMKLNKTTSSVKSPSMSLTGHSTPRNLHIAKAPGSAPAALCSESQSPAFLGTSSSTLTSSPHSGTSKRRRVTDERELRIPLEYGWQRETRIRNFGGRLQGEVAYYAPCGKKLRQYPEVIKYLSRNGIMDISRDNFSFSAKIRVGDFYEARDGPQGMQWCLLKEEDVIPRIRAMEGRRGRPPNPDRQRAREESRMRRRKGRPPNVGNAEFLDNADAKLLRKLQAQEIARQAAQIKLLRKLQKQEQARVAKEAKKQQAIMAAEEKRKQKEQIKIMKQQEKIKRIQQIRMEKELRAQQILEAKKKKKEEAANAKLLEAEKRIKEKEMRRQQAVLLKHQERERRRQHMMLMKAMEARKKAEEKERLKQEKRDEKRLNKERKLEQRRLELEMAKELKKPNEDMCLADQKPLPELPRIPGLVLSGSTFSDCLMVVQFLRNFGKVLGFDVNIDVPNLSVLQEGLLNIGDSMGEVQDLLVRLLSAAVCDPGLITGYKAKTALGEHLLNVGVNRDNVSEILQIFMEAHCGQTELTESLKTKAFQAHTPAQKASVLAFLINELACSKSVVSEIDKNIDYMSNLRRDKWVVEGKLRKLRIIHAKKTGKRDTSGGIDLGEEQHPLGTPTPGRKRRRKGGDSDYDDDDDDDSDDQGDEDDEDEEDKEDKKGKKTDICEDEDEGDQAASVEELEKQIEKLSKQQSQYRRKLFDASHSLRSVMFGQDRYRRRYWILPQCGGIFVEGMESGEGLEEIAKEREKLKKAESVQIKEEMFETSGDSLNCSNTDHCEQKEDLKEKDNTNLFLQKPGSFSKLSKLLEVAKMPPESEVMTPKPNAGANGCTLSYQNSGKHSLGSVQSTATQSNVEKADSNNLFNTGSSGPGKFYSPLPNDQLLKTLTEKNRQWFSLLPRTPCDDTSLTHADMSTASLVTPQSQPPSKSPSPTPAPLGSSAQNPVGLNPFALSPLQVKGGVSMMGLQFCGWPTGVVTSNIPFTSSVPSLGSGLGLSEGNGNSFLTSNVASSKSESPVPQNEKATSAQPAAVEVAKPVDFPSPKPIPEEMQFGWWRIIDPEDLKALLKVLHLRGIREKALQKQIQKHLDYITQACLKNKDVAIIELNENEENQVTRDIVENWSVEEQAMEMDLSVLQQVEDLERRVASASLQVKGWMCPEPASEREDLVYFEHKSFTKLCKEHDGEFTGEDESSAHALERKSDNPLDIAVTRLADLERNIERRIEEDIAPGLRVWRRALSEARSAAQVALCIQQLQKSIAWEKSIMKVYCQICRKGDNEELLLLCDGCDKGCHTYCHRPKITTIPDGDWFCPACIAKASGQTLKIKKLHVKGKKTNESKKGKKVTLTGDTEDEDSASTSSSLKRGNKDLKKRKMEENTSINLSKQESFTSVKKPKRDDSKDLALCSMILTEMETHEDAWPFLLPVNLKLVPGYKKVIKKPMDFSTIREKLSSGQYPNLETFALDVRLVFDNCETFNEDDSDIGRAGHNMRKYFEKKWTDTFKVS
# Assay: qHTS Assay for Inhibitors of BAZ2B; further: nearly all actives have a fitted effect of over 60% in size
# Conditions: AlphaScreen BAZ2B-H3K14Ac peptide displacement; activity change, negative = inhibition: at 114 µM (top of the series) unless noted
# Outline: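 Inhibition is scored as reduced AlphaScreen emission. The BAZ2B/b-H3(5-23)K14Ac complex (50 nM each) in PBS pH 7.4, 0.01% Tween-20 meets compound (up to 110 uM) for 30 min at RT before bead addition.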
# On the % scale 0 is the no-effect control and ±100 the full control effect; potency means the concentration at half of the fitted maximal effect; tags describe the fitted curve by direction and shape.
Structure (SMILES),"activity change, negative = inhibition",Potency
O=[N+]([O-])c1ccc(Cl)cc1N1CCOCC1,inactive: -12.3%,–
CCOc1cc(C(c2c(C)[nH][nH]c2=O)c2c(C)[nH][nH]c2=O)cc(Cl)c1O,–,"inconclusive: 79.4 µM [inhibitor, single point]"
O=S(=O)(NC(=S)c1ccccc1)c1ccc(Cl)cc1,inactive: -24.9%,–
Cc1cccn2c(=O)c(/C=C(\C#N)C(N)=O)c(N3CCN(c4ccccc4)CC3)nc12,–,"inconclusive: 44.7 µM [inhibitor, partial curve]"
O=S(=O)(c1ccccc1)N1N=C(c2ccc(O)cc2)CC1c1ccco1 (centres undefined),–,"inconclusive: 44.7 µM [inhibitor, partial curve]"
COc1ccc(N2CCN(C(=O)c3ccc4c(c3)N(Cc3cc(C)ccc3C)C(=O)c3ccccc3S4=O)CC2)cc1 (centres undefined),–,"inconclusive: 12.6 µM [inhibitor, full curve]"
CCOC(=O)C1CCN(Cc2ccccc2C)CC1,–,active: 56.2 µM
COc1ccc(C2c3ccc4ccccc4c3Oc3ncn(CCN4CCOCC4)c(=N)c32)cc1 (centres undefined),–,"inconclusive: 44.7 µM [inhibitor, partial curve]"
CCC(C)(C)C(=O)O[C@H]1C[C@@H](C)C=C2C=C[C@H](C)[C@H](CC[C@@H]3C[C@@H](O)CC(=O)O3)[C@H]21,–,"inconclusive: 79.4 µM [inhibitor, single point]"
CCOc1nc(Nc2ccc(OC)cc2OC)nc(OCC)n1,–,"inconclusive: 89.1 µM [inhibitor, single point]"
COc1ccc(-c2nnc(SCC(=O)/C(C#N)=C(\C)N)o2)cc1,–,"inconclusive: 56.2 µM [inhibitor, partial curve]"
CN1CCC(=O)N(CCOc2ccccc2)CC1,–,"inconclusive: 89.1 µM [inhibitor, single point]"
Cc1csc(CNc2ncnc3ccc(-c4ccoc4)cc23)c1,–,"inconclusive: 44.7 µM [inhibitor, partial curve]"
CC(=O)Nc1cccc(NC(=S)Nc2cccc(Cl)c2Cl)c1,inactive: -12.9%,–
CCOc1ccc(-c2nc(S(=O)(=O)c3ccccc3)c(N3CCC(C(N)=O)CC3)o2)cc1,–,"inconclusive: 79.4 µM [inhibitor, single point]"
O=S(=O)(c1ccc2ccccc2c1)N1CCN(Cc2ccccn2)CC1,–,active: 79.4 µM
Cn1cccc1/C=N/NC(=O)c1sc2ccccc2c1Cl,–,"inconclusive: 35.5 µM [inhibitor, full curve, poor fit]"
O=C(Nc1cc(C(F)(F)F)ccc1Cl)c1ccc2c(c1)CCN2S(=O)(=O)c1ccccc1,inactive: -1.09%,–
O=[N+]([O-])/C=C/c1ccc2c(ccn2Cc2ccccc2)c1,–,"inconclusive: 8.91 µM [inhibitor, full curve]"
CCCN1CCCc2cc(CN)ccc21,–,active: 44.7 µM
CC(=O)c1c(C)oc(C)c1CSCc1ccc(C(=O)O)o1,–,"inconclusive: 89.1 µM [inhibitor, single point]"
N/C(=N\OC(=O)c1cccnc1)c1ccccc1Cl,–,"inconclusive: 100 µM [inhibitor, single point]"

Structure (SMILES),"activity change, negative = inhibition",Potency
Cc1nc2c(ncn2-c2ccccc2)c(=O)n1NC(=O)CN1CCN(C)CC1,–,"inconclusive: 89.1 µM [inhibitor, single point]"
CCOC(=O)c1[nH]c2ccccc2c1NC(=O)c1ccccc1OC,–,active: 79.4 µM
O=C(COC(=O)/C=C/c1cccc(Br)c1)NCCc1ccccc1,inactive: -3.71%,–
Cc1nccn1CC(=O)c1ccc(O)c(O)c1,–,active: 56.2 µM
COc1ccc(N=C2SCC(c3ccc(C)cc3)=NN2CCO)cc1,–,"inconclusive: 50.1 µM [inhibitor, partial curve]"
c1ccc(-c2ccc(-c3cn4c(n3)CCC4)cc2)cc1,–,"inconclusive: 70.8 µM [inhibitor, single point]"
C/C(=N\NC(=O)c1ccccc1O)C1C(=O)c2ccccc2C1=O,–,"inconclusive: 31.6 µM [inhibitor, full curve]"
O=C(CN1CCN(c2ccc(O)cc2)CC1)Nc1cc(S(=O)(=O)N2CCCC2)ccc1Cl,–,"inconclusive: 44.7 µM [inhibitor, partial curve]"
CC(=O)N1CCN(S(=O)(=O)c2cccc(C(=O)Nc3ccc4c(c3)CCC4)c2)CC1,inactive: 17.5%,–
COc1ccc2c(c1)CC/C(=C/c1ccco1)C2=O,–,active: 35.5 µM
COc1cccc(-c2nnc(NC(=O)c3ccc(Cl)s3)o2)c1,–,"inconclusive: 89.1 µM [inhibitor, single point]"
C=CCN(C(=O)CN1CCOCC1)c1nc(C)c(-c2ccccc2)s1,–,"inconclusive: 89.1 µM [inhibitor, single point]"
Cc1cc(-c2ccccc2)nc(SCC(=O)c2cccc([N+](=O)[O-])c2)n1,–,"inconclusive: 79.4 µM [inhibitor, single point]"
COc1ccccc1NC(CC(=O)c1ccccc1)C(=O)OCC(=O)c1ccc(F)cc1 (centres undefined),inactive: -6.82%,–
Cc1cccc2c1N(CCOc1ccccc1)C(=O)C2=O,–,"inconclusive: 39.8 µM [inhibitor, partial curve]"
COc1ccc(OC)c(-n2c(SCC(=O)NCc3ccco3)nnc2-c2c[nH]c3ccccc23)c1,–,"inconclusive: 79.4 µM [inhibitor, single point]"
COc1cccc(NC(=O)CN2C(=O)COc3ccc(S(=O)(=O)N4CCCCCC4)cc32)c1,–,"inconclusive: 79.4 µM [inhibitor, single point]"
Cc1cccc(-n2c(C)n[nH]c2=S)c1,–,"inconclusive: 100 µM [inhibitor, single point]"
CCN(CC)c1ccc(NC(=O)c2ccc3c(c2)OCO3)c(C)c1,–,"inconclusive: 70.8 µM [inhibitor, partial curve]"
O=C(NNC(=O)C1[C@H]2CCCC[C@@H]12)Nc1cccc2ccccc12 (some centres undefined),inactive: -0.13%,–
O=C(C1CCCN(S(=O)(=O)c2cccc3nsnc23)C1)N1CCc2ccccc2C1 (centres undefined),–,"inconclusive: 79.4 µM [inhibitor, single point]"
COc1cc(C2=NOC(C(=O)N3CCN(c4ccc(F)cc4)CC3)C2)cc(OC)c1OC (centres undefined),–,"inconclusive: 79.4 µM [inhibitor, partial curve]"

# From PubChem BioAssay AID504333 (National Center for Advancing Translational Sciences (NCATS), 2011)
